# Reference: the supplement of paper PMC11125491
# ± gives the standard deviation of the averaged measurements. Growth of baker's yeast expressing single-residue variants of Pneumocystis jirovecii dihydrofolate reductase in 8.8 or 44 µM methotrexate (about 75% and 90% inhibition of the wild type). Selection coefficient per generation; 0 = like wild type, above 0 = less sensitive, below 0 = more sensitive or loss of function. No active / inactive call per row; the paper calls resistant above 0.220 (8.8 µM) or 0.243 (44 µM) together with a significance test. At 44 µM about 15% of codons end with one read or none, so the lowest values are floors (replicate rank correlation 0.74; 0.94 at 8.8 µM).
# B1: UniProt A0EPZ9; numbered along this chain (parent)
# chain: MDWQKSLTLIVALTLSRGIGLKNDLPWKLKSDMMFFSRVTSGLLVTRSTGQMNVVLMGRKTWESLPAHSRPLKNRINVVISRQEVLDLGGGAYHARSLDDALALLSQIYDSTSKIQLNRVFVIGGGELCKAAMEHSRLNRIIATVIHNEVDCDVFFPIDFRSSQSCLPWRKQDHSVLEAWVGSKVPQGKINENGFIYEFEMWIRDI
# Variants of: B1
# Assay: selection coefficient against synonymous wild-type codons (log2 per generation); higher = faster growth than wild type
# Settings: with Saccharomyces cerevisiae carrying the variant on a plasmid
# Procedure: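 Pooled growth of yeast carrying single-residue variants of P. jirovecii dihydrofolate reductase (own DFR1 gene intact), two passages at 30 °C, three cultures, sequenced before and after. Codons with under 15 starting reads are left out; codons of one change are averaged.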
Variant,selection coefficient against synonymous wild-type codons (log2) (methotrexate 8.8 µM),selection coefficient against synonymous wild-type codons (log2) (methotrexate 44 µM)
H68C,-0.032 ± 0.048,-0.153 ± 0.23
W62K,-0.561 ± 0.061,-0.313 ± 0.056
Q164D,-0.0545 ± 0.1,-0.0424 ± 0.099
Q164M,-0.0446 ± 0.02,-0.134 ± 0.071
Q164G,-0.0503 ± 0.036,-0.102 ± 0.077
S162E,0.0277 ± 0.012,0.00277 ± 0.09
P168V,-0.236 ± 0.071,-0.273 ± 0.09
T112P,-0.16 ± 0.033,-0.127 ± 0.14
L177E,-0.27 ± 0.021,-0.065 ± 0.063
L177Y,0.0153 ± 0.035,0.0395 ± 0.023
D173L,-0.202 ± 0.045,-0.2 ± 0.12
D173C,-0.252 ± 0.12,-0.258 ± 0.11
D173P,-0.0726 ± 0.039,-0.0616 ± 0.28
S64Y,-0.384 ± 0.1,-0.238 ± 0.12
V79A,-0.67 ± 0.15,-0.251 ± 0.13
V79W,-0.814 ± 0.095,-0.123 ± 0.49
S111E,0.211 ± 0.026,1.23 ± 0.14
G124N,-0.631 ± 0.12,-0.0828 ± 0.07
G124Q,-0.844 ± 0.11,0.0148 ± 0.59
E198Y,-0.302 ± 0.07,-0.294 ± 0.13

Variant,selection coefficient against synonymous wild-type codons (log2) (methotrexate 8.8 µM),selection coefficient against synonymous wild-type codons (log2) (methotrexate 44 µM)
N193Y,-0.411 ± 0.08,-0.224 ± 0.18
V122I,0.00773 ± 0.017,0.119 ± 0.14
L117M,-0.149 ± 0.011,-0.261 ± 0.15
L117C,-0.128 ± 0.048,-0.147 ± 0.14
L117Y,-0.232 ± 0.023,-0.117 ± 0.058
V181E,0.00309 ± 0.0089,-0.119 ± 0.12
V181I,-0.0882 ± 0.082,-0.0319 ± 0.11
D153I,-0.48 ± 0.26,-0.384 ± 0.022
D153A,0.167 ± 0.031,0.0806 ± 0.042
G50Q,-0.0112 ± 0.037,-0.106 ± 0.12
G50F,-0.326 ± 0.042,-0.159 ± 0.03
Y197P,-0.154 ± 0.13,-0.152 ± 0.035
Y197H,-0.185 ± 0.13,-0.158 ± 0.14
G91N,0.0391 ± 0.064,0.114 ± 0.13
G91K,0.0892 ± 0.04,0.175 ± 0.026
P66I,-0.313 ± 0.16,-0.192 ± 0.015
P66C,-0.0933 ± 0.07,-0.0346 ± 0.11
P66T,-0.246 ± 0.068,-0.175 ± 0.11
P66F,-0.234 ± 0.25,-0.0407 ± 0.18
P66A,-0.0604 ± 0.054,-0.0455 ± 0.11

Variant,selection coefficient against synonymous wild-type codons (log2) (methotrexate 8.8 µM),selection coefficient against synonymous wild-type codons (log2) (methotrexate 44 µM)
P66K,-0.0231 ± 0.048,-0.109 ± 0.11
G20K,-0.371 ± 0.08,-0.343 ± 0.11
I115K,-0.0124 ± 0.028,-0.0655 ± 0.066
L25E,0.351 ± 0.028,0.332 ± 0.061
E134V,-0.219 ± 0.047,-0.35 ± 0.1
E134Q,0.0173 ± 0.013,-0.0528 ± 0.11
E134T,-0.102 ± 0.035,0.000588 ± 0.063
G42F,-0.155 ± 0.14,-0.0975 ± 0.12
G42P,0.405 ± 0.026,0.428 ± 0.054
L98P,-0.774 ± 0.09,-0.299 ± 0.072
L98N,-0.639 ± 0.046,-0.18 ± 0.054
H135I,-0.361 ± 0.026,-0.206 ± 0.057
D99N,-0.203 ± 0.022,0.211 ± 0.49
F195M,0.0486 ± 0.03,-0.0229 ± 0.08
F195D,0.237 ± 0.073,0.163 ± 0.1
Q83R,-0.0211 ± 0.039,-0.0454 ± 0.1
I190M,-0.168 ± 0.032,-0.235 ± 0.11
N191Q,-0.02 ± 0.019,-0.144 ± 0.09
